# From PubChem BioAssay AID463173 (ICCB-Longwood Screening Facility, Harvard Medical School, 2010)
# The whole screen tested about 52,000 compounds, of which about 4,300 (8.3%) were called active. Cut-off read from the data, not from the text of the source: active = survival mostly below about 52% (no sharp cut-off); inactive = mostly above about 56%. Some of the results follow.
# System: DeltatarO mutant
# Assay: growth inhibition of S. aureus wild type versus tarO mutant, primary screen, teichoic acid synthesis inhibitors, RN4220, OD600 (AID 463173)
# Conditions: OD600, 18 h, active compounds read low, screened at 18.75 µg/mL (by protocol)
row,Structure (SMILES),survival
1,O=c1c2ccccc2n(Cc2cccc(Cl)c2)c(=O)n1CCc1ccccc1,inactive: 65%
2,CC(=O)NCCc1nc2ccccc2n1CCCCOc1ccc(Cl)cc1,inactive: 61%
3,CCN(c1ccccc1)c1nnc(NC(=O)Nc2cccc(C(F)(F)F)c2)s1,inactive: 88%
4,CCc1ccc(NC(=O)c2cc3ccccn3n2)cc1,inactive: 99%
5,Cc1nc2cc(C(F)(F)F)ccc2n1C1CCN(C(=O)C2CC2)CC1,inactive: 100%
6,Cc1cc(C)c2c(CC(=O)Nc3nnc(C(C)C)s3)coc2c1,inactive: 75%
7,Fc1ccccc1CNCCCSc1nnnn1-c1ccccc1,inactive: 68%
8,O=C(CSc1nc(=O)[nH]c2c1CCCC2)Nc1cc(C(F)(F)F)ccc1Cl,inactive: 91%
9,COc1ccc(-c2nnc(Nc3ccc(OCC(N)=O)cc3)c3ccccc23)cc1,inactive: 69%
10,Cc1c(C(=O)NN)c2cc(O)ccc2n1C,inactive: 78%
11,Cc1cc(C)n(-c2nc3ccccc3nc2Nc2cccc(C(F)(F)F)c2)n1,inactive: 75%
12,COc1ccc(C2C(C(=O)Nc3ccccc3)=C(C)Nc3nc(-c4ccccc4)nn32)cc1OC (stereo not given),inactive: 85%
13,COc1ccc(OC)c(-c2nc(Nc3ccccc3C)sc2CC(=O)O)c1,inactive: 89%
14,CCOC(=O)c1ccccc1NC(=O)CSc1ccc(-c2sc(-c3ccccc3)nc2C)nn1,inactive: 34%
15,COc1ccc(CNc2nc3c(S(=O)(=O)c4ccccc4)nnn3c3ccc(Cl)cc23)cc1,inactive: 73%
16,CCOc1ccc(Nc2oc(/C=C/c3ccc(F)cc3)nc2C#N)cc1,inactive: 102%
17,Cc1ccc(NC(=O)C(=O)NCC(c2cccnc2)N2CCN(C)CC2)cc1C (stereo not given),inactive: 79%
18,COc1ccc(NC(=O)c2oc3c(c2C)-c2nn(Cc4c(F)cccc4Cl)cc2CC3)c(OC)c1,inactive: 72%
19,Fc1ccc(-c2cc(-c3nc(-c4cccc(Cl)c4)no3)[nH]n2)cc1,inactive: 88%
20,COc1cc(OC)c(OC)cc1CN1CCc2nc(N3CCN(c4ncccn4)CC3)ncc2C1,inactive: 96%
21,CC1CCC(NC(=O)c2ccc3c(c2)N(Cc2cccc(F)c2)C(=O)c2ccccc2S3)CC1 (stereo not given),inactive: 120%
22,Cc1ccc(C)c(NC(=O)C(C)n2c(=O)cc(C(F)(F)F)c3c(C)nn(C)c32)c1 (stereo not given),inactive: 89%
23,CCc1nnc(SCc2ccc(F)cc2Cl)c2cc3sccc3n12,inactive: 80%

row,Structure (SMILES),survival
1,CCN1CCN(C(=O)c2ccc3c(c2)N(Cc2cccc(Cl)c2)C(=O)c2ccccc2S3(=O)=O)CC1,inactive: 102%
2,COc1ccc(-c2noc(C3CC(=O)N(c4ccc(C)c(F)c4)C3)n2)c(OC)c1 (stereo not given),inactive: 107%
3,COc1ccccc1CNC(=O)CSc1ncc2c(n1)-c1ccccc1N(Cc1ccc(C)cc1)S2(=O)=O,inactive: 64%
4,CCc1ccc(CNC(=O)c2ccc3c(c2)nc2n3CCOC2)cc1,inactive: 115%
5,CC(C)CCNC(=O)CN1C(=O)COc2ccc(S(=O)(=O)N3CCOCC3)cc21,inactive: 90%
6,COc1ccc(NC(=O)C(=O)NCCc2ccccc2)cc1OC,inactive: 53%
7,COc1cccc(C(=O)Nc2ccccc2C(=O)OCc2cc(=O)n3nc(C)sc3n2)c1,inactive: 85%
8,CC(C)c1ccc(NC(=O)C2CCCN(S(=O)(=O)c3ccc(Br)s3)C2)cc1 (stereo not given),inactive: 66%
9,CCOC(=O)c1cccc(NC(=O)c2cc3c(Cl)nc4ccc(C)cc4c3s2)c1,inactive: 105%
10,COc1ccc(-n2cc(-c3ccccc3)c3c(SC(C)C(C)=O)ncnc32)cc1 (stereo not given),inactive: 54%
11,CCc1ccc(NS(=O)(=O)c2ccc3[nH]cc(C(=O)NC4CCCC4)c(=O)c3c2)cc1,active: 8%
12,CN1CCN(C(CNC(=O)C(=O)Nc2ccc(F)cc2)c2cccnc2)CC1 (stereo not given),inactive: 81%
13,Cc1cc2oc(C(=O)Nc3nc(-c4ccccc4)ns3)c(C)c2cc1Cl,active: 45%
14,Cc1ccc(NC(=O)CN2C(=O)CCc3cc(S(=O)(=O)N4CCOCC4)ccc32)c(C)c1,inactive: 79%
15,CCC(CC)C(=O)N1CCc2cc(OC)c(OC)cc2C1COc1ccccc1OC (stereo not given),inactive: 80%
16,CC(=O)c1ccc(NS(=O)(=O)c2ccc3[nH]c4c(c3c2)CCCCCC4)cc1,inactive: 84%
17,Cc1ccc(C)c(Cn2nnc(C(=O)NCc3ccccc3)c2N)c1,inactive: 78%
18,CCC(=O)N1CCc2cc(S(=O)(=O)CCC(=O)N3CCN(c4ccccc4F)CC3)ccc21,inactive: 84%
19,Cc1ccc(CNC(=O)c2cc3sccc3n2Cc2ccc(F)cc2)cc1,inactive: 83%
20,CCOc1ccc(-c2cnc(NCc3cccc(Cl)c3)n2C)cc1,active: 30%
21,COc1ccc(C(=O)CCC(=O)Nc2cccc(C(C)=O)c2)cc1,inactive: 96%
22,Cc1ccc(Cn2c(=O)n(Cc3ccc(Cl)cc3)c(=O)c3cccnc32)cc1,inactive: 78%
23,CCOc1ccc(NC(=O)CSc2nnc(NC(=O)Nc3ccccc3)s2)cc1,inactive: 79%

row,Structure (SMILES),survival
1,CCC1CCCCN1C(=O)CSc1nnc2c3ccccc3n(CC(=O)O)c2n1 (stereo not given),inactive: 71%
2,Cc1nc2cc(-c3cccc(F)c3)nn2c(C)c1CCC(=O)NC1CCCCC1,inactive: 95%
3,CCOc1ccc(-c2nonc2NC(=O)COc2ccc(C)c(C)c2)cc1OCC,inactive: 111%
4,O=C(c1ccc2c(c1)N(Cc1cccc(Cl)c1)C(=O)c1ccccc1S2(=O)=O)N1CCN(c2cccc(C(F)(F)F)c2)CC1,inactive: 98%
5,COc1ccc(-c2nn(C)c3sc(C(=O)N4CCN(c5cc(Cl)ccc5C)CC4)cc23)cc1OC,inactive: 103%
6,Cn1c(NN)nc2c(c1=O)C1(CCCC1)Cc1ccccc1-2,inactive: 59%
7,CCc1cc2c(=O)n(-c3ccccc3)c(SCC(=O)c3cccs3)nc2s1,inactive: 101%
8,CC1CCc2c(sc(NC(=O)c3ccccc3)c2C(=O)Nc2ccccc2)C1 (stereo not given),active: 42%
9,COc1ccc(OC)c(CNc2ncnc3onc(-c4ccc(Cl)cc4)c23)c1,inactive: 53%
10,CCOC(=O)CSc1nc2ccc(NC(=O)COc3ccccc3)cc2s1,inactive: 93%
11,Cc1cccc(CSc2cn(CC(=O)N3CCCCCC3)c3ccccc23)c1,inactive: 82%
12,Cc1ccccc1-n1nc(CO)c(C(=O)NCCc2ccccc2)n1,inactive: 86%
13,COc1cccc(NC(=O)C(=O)NCC(c2cccnc2)N2CCN(c3ccccc3)CC2)c1 (stereo not given),inactive: 97%
14,COc1ccc(Cl)cc1NC(=O)C1CCN(c2ncnc3c2nc2n3CCCCC2)CC1,inactive: 89%
15,CCN(CC)c1ccc(NC(=O)c2cnn3c(C(F)F)cc(-c4ccccc4)nc23)cc1,active: 59%
16,O=C(CCC(=O)N1Cc2ccccc2Oc2ncccc21)NCc1ccccc1Cl,inactive: 74%
17,Cc1cc(C)n(CCCC(=O)NCCn2nccc2C)n1,inactive: 76%
18,COc1ccc(C(c2c(O)cc(C)n(Cc3ccco3)c2=O)N2CCN(c3ccccc3)CC2)cc1 (stereo not given),inactive: 88%
19,N#CC1=C(S)NC(=O)C(C#N)C12CCCCC2 (stereo not given),inactive: 85%
20,CCCCN(C)CCNC(=O)C1CCN(c2nc3ccc(CC)cc3s2)CC1,inactive: 45%
21,CCOC(=O)C(C)Sc1nnc(-c2ccc(F)cc2)o1 (stereo not given),inactive: 86%
22,CCCOc1ccc(-c2cccc(NS(=O)(=O)c3cc(OC)ccc3OC)c2)nn1,inactive: 99%
23,O=C(NCc1ccc(Cl)cc1)c1cnc2sc(N3CCCCCC3)nn2c1=O,inactive: 89%

row,Structure (SMILES),survival
1,Cc1ccc(S(=O)(=O)c2nc(-c3cccs3)oc2SCC(=O)Nc2cc(C)cc(C)c2)cc1,inactive: 70%
2,CN(CCc1ccccn1)C(=O)c1nn2c(C(F)(F)F)cc(-c3ccco3)nc2c1Cl,inactive: 50%
3,COc1ccccc1OCC(=O)N(Cc1cccs1)C1CCS(=O)(=O)C1 (stereo not given),inactive: 53%
4,COc1ccccc1CNc1nc(-c2ccco2)nn1S(C)(=O)=O,inactive: 70%
5,Cc1cccc(Cn2c(=O)n(CCCC(=O)NCc3ccccc3Cl)c(=O)c3ccccc32)c1,inactive: 99%
6,Cc1ccc(Nc2c3c(nc4nc(-c5cccs5)nn24)CCCC3)cc1F,active: 20%
7,COc1ccc(N2C(=O)CSC23C(=O)N(Cc2cccc(C(F)(F)F)c2)c2ccccc23)cc1 (stereo not given),inactive: 67%
8,Cc1cc(OCCN2CCOCC2)nc(N2CCOCC2)n1,inactive: 90%
9,CCOc1ccc2oc(=O)cc(CN3CCN(Cc4ccc(C)cc4)CC3)c2c1,inactive: 48%
10,CCOc1ccc(-n2ccnc2SCC(=O)Nc2cccc3ccccc23)cc1,inactive: 68%
11,O=C(CSc1nnc(Cn2nnc3ccccc32)o1)N(Cc1ccc(Cl)cc1)c1ccccc1,inactive: 58%
12,Cc1cccc(CC(=O)N2CC(=O)Nc3ccc(C)cc3C2c2ccc(F)cc2)c1 (stereo not given),inactive: 50%
13,COc1ccc(Br)cc1CNC(=O)c1ccc2nc(C(C)C)oc2c1,inactive: 101%
14,N=c1c(S(=O)(=O)c2ccccc2)cc2c(=O)n3ccccc3nc2n1Cc1cccnc1,inactive: 85%
15,COc1ccc(-n2cc(-c3ccccc3)nc2SCC(=O)Nc2ccccc2C)cc1,inactive: 94%
16,Cc1ccc(CNc2nc3ccc(Cl)cc3n3nnnc23)cc1,inactive: 95%
17,CCOC(=O)N1CCc2c(sc(NCc3cccc(F)c3)c2C(=O)Nc2ccc(OC)cc2)C1,inactive: 113%
18,COc1cc(NC(=O)CCn2c(=O)oc3ccccc32)cc(OC)c1OC,inactive: 62%
19,COc1cc(OC)c(NS(=O)(=O)c2c(C(=O)N3CCCCCC3)c(C)n(C)c2C)cc1Cl,inactive: 68%
20,Cc1cc(-c2ccc(C)c(S(=O)(=O)Nc3ccccn3)c2)on1,inactive: 73%
21,COc1ccc(N(Cc2cccs2)C(=O)COc2cccc(C)c2C)cc1,active: 17%
